Measurements: article PMC9448326
Results are given in words; binding and its absence hold for the method and conditions named. Binding seen in cells or lysates may run through a third protein. Some entries that bind do so weakly or less than the wild type.

The chains behind the UniProt entries cited, without tags or fusion partners. Where a name states a change or a piece, a line headed by the entry shows the natural chain unless it says otherwise. A line that says so, or that is headed by a name, gives the form on record, which may keep a tag or linker.
UniProt P17302: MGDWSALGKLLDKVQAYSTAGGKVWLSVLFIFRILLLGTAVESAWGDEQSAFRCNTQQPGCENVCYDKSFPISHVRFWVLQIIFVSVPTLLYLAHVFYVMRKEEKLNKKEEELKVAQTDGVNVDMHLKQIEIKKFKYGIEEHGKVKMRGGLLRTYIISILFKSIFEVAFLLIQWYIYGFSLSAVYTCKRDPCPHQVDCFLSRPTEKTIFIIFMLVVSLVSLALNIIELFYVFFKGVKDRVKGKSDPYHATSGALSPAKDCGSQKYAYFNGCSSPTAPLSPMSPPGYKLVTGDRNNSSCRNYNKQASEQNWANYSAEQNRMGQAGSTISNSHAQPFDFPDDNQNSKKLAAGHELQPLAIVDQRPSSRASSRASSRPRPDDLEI
UniProt P16863: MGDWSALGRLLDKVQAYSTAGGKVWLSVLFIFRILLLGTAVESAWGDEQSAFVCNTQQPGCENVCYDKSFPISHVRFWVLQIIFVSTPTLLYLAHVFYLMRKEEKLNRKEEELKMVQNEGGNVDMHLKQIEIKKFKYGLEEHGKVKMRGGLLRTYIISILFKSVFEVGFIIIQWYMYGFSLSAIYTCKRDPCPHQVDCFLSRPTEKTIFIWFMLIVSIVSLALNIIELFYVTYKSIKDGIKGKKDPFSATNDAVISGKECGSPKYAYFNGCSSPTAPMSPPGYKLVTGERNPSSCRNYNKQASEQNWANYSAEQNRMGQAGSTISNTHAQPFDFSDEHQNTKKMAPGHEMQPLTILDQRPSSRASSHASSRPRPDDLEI
Xenopus laevis dominant-negative GJA1 Δ130–136-Flag (P16863, form named): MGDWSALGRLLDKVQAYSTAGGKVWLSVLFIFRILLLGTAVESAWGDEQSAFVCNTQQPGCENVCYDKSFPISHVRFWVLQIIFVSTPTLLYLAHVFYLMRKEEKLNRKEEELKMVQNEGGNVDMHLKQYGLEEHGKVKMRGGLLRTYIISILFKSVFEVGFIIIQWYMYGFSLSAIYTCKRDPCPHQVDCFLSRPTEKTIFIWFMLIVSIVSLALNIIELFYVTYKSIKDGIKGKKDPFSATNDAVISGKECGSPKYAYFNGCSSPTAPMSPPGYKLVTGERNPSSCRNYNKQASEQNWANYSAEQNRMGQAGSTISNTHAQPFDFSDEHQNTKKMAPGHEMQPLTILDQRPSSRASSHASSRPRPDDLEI
Xenopus laevis dominant-negative GJA1 Δ234–243-Flag (P16863, form named): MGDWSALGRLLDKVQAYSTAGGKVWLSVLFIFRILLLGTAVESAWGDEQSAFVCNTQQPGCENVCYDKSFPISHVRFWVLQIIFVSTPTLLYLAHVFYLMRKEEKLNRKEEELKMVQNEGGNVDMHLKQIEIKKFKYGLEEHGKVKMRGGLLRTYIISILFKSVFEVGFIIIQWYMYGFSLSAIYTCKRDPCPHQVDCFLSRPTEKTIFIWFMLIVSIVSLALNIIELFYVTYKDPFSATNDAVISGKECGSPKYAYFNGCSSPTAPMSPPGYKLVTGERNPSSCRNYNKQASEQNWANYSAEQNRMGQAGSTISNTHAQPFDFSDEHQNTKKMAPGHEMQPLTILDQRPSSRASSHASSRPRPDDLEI
UniProt P61006: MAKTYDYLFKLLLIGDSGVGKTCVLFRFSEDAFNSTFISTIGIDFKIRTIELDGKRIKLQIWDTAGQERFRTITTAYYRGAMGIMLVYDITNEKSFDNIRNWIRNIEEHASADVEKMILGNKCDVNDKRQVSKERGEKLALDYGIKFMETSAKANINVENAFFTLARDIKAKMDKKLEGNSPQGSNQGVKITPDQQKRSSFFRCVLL
UniProt P62491: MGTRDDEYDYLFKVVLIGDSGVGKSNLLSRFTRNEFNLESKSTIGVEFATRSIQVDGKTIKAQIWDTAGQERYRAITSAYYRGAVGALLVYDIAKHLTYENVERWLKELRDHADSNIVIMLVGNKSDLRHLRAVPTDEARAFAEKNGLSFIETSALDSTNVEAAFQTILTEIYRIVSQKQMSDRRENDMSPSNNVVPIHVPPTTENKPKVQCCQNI

Key:
[1] = target: Gap junction protein α1 (GJA1), endogenous in human RPE1 cells (human (endogenous in RPE1)) (UniProt P17302); assay: co-IP; lysate of RPE1 cells expressing HA-tagged Rab protein; anti-GJA1 antibody-conjugated or IgG-conjugated beads; immunoblot with anti-GJA1 and anti-HA
[2] = target: Xenopus laevis dominant-negative GJA1 T154A-Flag (Xenopus laevis) (UniProt P16863); assay: co-IP; lysate of RPE1 cells co-expressing Rab11a-HA and WT-GJA1-Flag or dnGJA1-Flag; anti-Flag M2 magnetic beads; immunoblot with anti-flag and anti-HA
[3] = target: Xenopus laevis dominant-negative GJA1 Δ130–136-Flag (Xenopus laevis) (UniProt P16863); assay: as above
[4] = target: Xenopus laevis dominant-negative GJA1 Δ234–243-Flag (Xenopus laevis) (UniProt P16863); assay: as above
[5] = target: Xenopus laevis wild-type GJA1-Flag (Xenopus laevis) (UniProt P16863); assay: as above

binding [1]	binding [2]	binding [3]	binding [4]	binding [5]	Substance
binds					HA-tagged Rab8a (from UniProt P61006 1-207)
binds	no binding	no binding	no binding	binds	HA-tagged Rab11a (from UniProt P62491 1-216)
